Source: the supplement of paper PMC12217912
The other results are listed elsewhere or left out. Sequences were assembled here from the parent chain. Inactive controls read about 0.05.

B1: TEV protease; numbered along this chain (parent)
chain: MGESLFKGPRDYNPISSSICHLTNESDGHTTSLYGIGFGPFIITNKHLFRRNNGTLVVQSLHGVFKVKDTTTLQQHLVDGRDMIIIRMPKDFPPFPQKLKFREPQREERICLVTTNFQTKSMSSMVSDTSCTFPSGDGIFWKHWIQTKDGQCGSPLVSTRDGFIVGIHSASNFTNTNNYFTSVPKNFMELLTNQEAQQWVSGWRLNADSVLWGGHKVFMVKPEEPFQPVKEATQL

Variants of: B1
Test: raw area under fraction-flipped curve 0-4 h after induction (AUC4h, not background-subtracted), DNA-recorder readout of cleavage of the substrate (dimensionless); higher = more cleavage of the substrate by the protease variant
Settings: temperature: 34 °C; time window: 0-4 h after rhamnose induction
Description: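 In vivo DNA recorder in E. coli TOP10(DE3) ΔrhaA at 34 °C. Each TEVp single-site mutant (parent TEVp 0) is paired with a single-site variant of the 7-mer TEVs (canonical ENLYFQ|S). The substrate sits between flexible linkers in a Bxb1-sfGFP-TEVs-SsrA fusion, so cleavage stabilises Bxb1 and speeds flipping of a recombination array, read by NGS. The value is the raw area under the fraction-flipped curve over 0-4 h after rhamnose induction (AUC4h), with ≥20 reads per time point. It is not background-subtracted; inactive controls average about 0.047.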
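Note: Bxb1 expression induced with 0.2% (w/v) L-rhamnose at OD600 near 0.5, cultures sampled hourly, flipped fraction per protease–substrate barcode pair counted by paired-end Illumina sequencing.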

Variant | area with substrate ENLYFAS | area with substrate ENLYFCS | area with substrate ENLYFES | area with substrate ENLYFGS | area with substrate ENLYFIS | area with substrate ENLYFKS | area with substrate ENLYFLS | area with substrate ENLYFMS | area with substrate ENLYFPS | area with substrate ENLYFTS
MGESLFKGPRDYNPISSSICHLTNESDGHTTSLYGIGFGPFIITNKHLFRRNNGTLVVQSLHGVFKVKDTTTLQQHLVDGRDMIIIRMPKDFPPFPQKLKFREPQREERICLVTTNFWTKSMSSMVSDTSCTFPSGDGIFWKHWIQTKDGQCGSPLVSTRDGFIVGIHSASNFTNTNNYFTSVPKNFMELLTNQEAQQWVSGWRLNADSVLWGGHKVFMVKPEEPFQPVKEATQL [Q118W] | 0.0507 | 0.0545 | 0.0562 | 0.0561 | 0.0668 | 0.0551 | 0.0542 | 0.071 | 0.0551 | 0.0651
MGESLFKGPRDYNPISSSICHLTNESDGHTTSLYGIGFGPFIITNKHLFRRNNGTLVVQSLHGVFKVKDTTTLQQHLVDGRDMIIIRMPKDFPPFPQKLKFREPQREERICLVTTNFQTKSMSSMVSDTSKTFPSGDGIFWKHWIQTKDGQCGSPLVSTRDGFIVGIHSASNFTNTNNYFTSVPKNFMELLTNQEAQQWVSGWRLNADSVLWGGHKVFMVKPEEPFQPVKEATQL [C131K] | 0.0381 | – | – | – | 0.0436 | 0.0571 | – | – | 0.0604 | –
MGESLFKGPRDYNPISSSICHLTNESDGHTTSLYGIGFGPFIITNKHLFRRNNGTLVVQSLHGVFKVKDTTTLQQHLVDGRDMIIIRMPKDFPPFPQKLKFREPQREERICLVTTNFQTKSMSSMVSDTSCTFPSGDGIFWKHWIQVKDGQCGSPLVSTRDGFIVGIHSASNFTNTNNYFTSVPKNFMELLTNQEAQQWVSGWRLNADSVLWGGHKVFMVKPEEPFQPVKEATQL [T147V] | 0.0502 | – | – | – | – | 0.0443 | 0.0561 | 0.0619 | – | 0.069
MGESLFKGPRDYNPISSSICHLTNESDGHTTSLYGIGFGPFIITNKHLFRRNNGTLVVQSLHGVFKVKDTTTLQQHLVDGRDMIIIRMPKDFPPFPQKLKFREPQREERICLVTTNFQTKSMSGMVSDTSCTFPSGDGIFWKHWIQTKDGQCGSPLVSTRDGFIVGIHSASNFTNTNNYFTSVPKNFMELLTNQEAQQWVSGWRLNADSVLWGGHKVFMVKPEEPFQPVKEATQL [S124G] | 0.0687 | – | 0.054 | 0.0611 | 0.0367 | 0.0825 | – | 0.0658 | 0.0705 | –
MGESLFKGPRDYNPISSSICHLTNESDGHTTSLYGIGFGPFIITNKHLFRRNNGTLVVQSLHGVFKVKDTTTLQQHLVDGRDMIIIRMPKDFPPFPQKLKFREPQREERICLVTTNFQTKSMSCMVSDTSCTFPSGDGIFWKHWIQTKDGQCGSPLVSTRDGFIVGIHSASNFTNTNNYFTSVPKNFMELLTNQEAQQWVSGWRLNADSVLWGGHKVFMVKPEEPFQPVKEATQL [S124C] | 0.0613 | – | – | 0.0369 | 0.0569 | – | – | – | 0.067 | –
MGESLFKGPRDYNPISSSICHLTNESDGHTTSLYGIGFGPFIITNKHLFRRNNGTLVVQSLHGVFKVKDTTTLQQHLVDGRDMIIIRMPKDFPPFPQKLKFREPQREERICLVTTNFQTKSMSYMVSDTSCTFPSGDGIFWKHWIQTKDGQCGSPLVSTRDGFIVGIHSASNFTNTNNYFTSVPKNFMELLTNQEAQQWVSGWRLNADSVLWGGHKVFMVKPEEPFQPVKEATQL [S124Y] | 0.0615 | 0.0227 | – | – | 0.0531 | – | – | – | – | –
MGESLFKGPRDYNPISSSICHLTNESDGHTTSLYGIGFGPFIITNKHLFRRNNGTLVVQSLHGVFKVKDTTTLQQHLVDGRDMIIIRMPKDFPPFPQKLKFREPQREERICLVTTNFQTKSMSSMVSTTSCTFPSGDGIFWKHWIQTKDGQCGSPLVSTRDGFIVGIHSASNFTNTNNYFTSVPKNFMELLTNQEAQQWVSGWRLNADSVLWGGHKVFMVKPEEPFQPVKEATQL [D128T] | 0.0483 | – | – | – | – | 0.067 | – | – | – | 0.0561
MGESLFKGPRDYNPISSSICHLTNESDGHTTSLYGIGFGPFIITNKHLFRRNNGTLVVQSLHGVFKVKDTTTLQQHLVDGRDMIIIRMPKDFPPFPQKLKFREPQREERICLVTTNFQTKSMSSMVSDTSCTFPSGDTIFWKHWIQTKDGQCGSPLVSTRDGFIVGIHSASNFTNTNNYFTSVPKNFMELLTNQEAQQWVSGWRLNADSVLWGGHKVFMVKPEEPFQPVKEATQL [G138T] | 0.0852 | – | 0.0638 | – | – | – | – | – | – | –
MGESLFKGPRDYNPISSSICHLTNESDGHTTSLYGIGFGPFIITNKHLFRRNNGTLVVQSLHGVFKVKDTTTLQQHLVDGRDMIIIRMPKDFPPFPQKLKFREPQREERICLVTTNFQTKSMSSMVSDTSCTFPSGDLIFWKHWIQTKDGQCGSPLVSTRDGFIVGIHSASNFTNTNNYFTSVPKNFMELLTNQEAQQWVSGWRLNADSVLWGGHKVFMVKPEEPFQPVKEATQL [G138L] | 0.0499 | – | – | – | 0.0585 | – | – | 0.0626 | – | –
MGESLFKGPRDYNPISSSICHLTNESDGHTTSLYGIGFGPFIITNKHLFRRNNGTLVVQSLHGVFKVKDTTTLQQHLVDGRDMIIIRMPKDFPPFPQKLKFREPQREERICLVTTNFQTKSMSSMVSDTSCTFPSGDYIFWKHWIQTKDGQCGSPLVSTRDGFIVGIHSASNFTNTNNYFTSVPKNFMELLTNQEAQQWVSGWRLNADSVLWGGHKVFMVKPEEPFQPVKEATQL [G138Y] | 0.0401 | – | 0.0405 | – | 0.0584 | – | – | 0.0627 | – | –
MGESLFKGPRDYNPISSSICHLTNESDGHTTSLYGIGFGPFIITNKHLFRRNNGTLVVQSLHGVFKVKDTTTLQQHLVDGRDMIIIRMPKDFPPFPQKLKFREPQREERICLVTTNFQTKSMSSMVSDTSCTFPSGDGIFFKHWIQTKDGQCGSPLVSTRDGFIVGIHSASNFTNTNNYFTSVPKNFMELLTNQEAQQWVSGWRLNADSVLWGGHKVFMVKPEEPFQPVKEATQL [W141F] | 0.0586 | 0.0507 | – | – | 0.0627 | – | – | 0.0627 | 0.0625 | –

Same assay, conditions: temperature: 34 °C; time window: 0-4 h after rhamnose induction

Variant | area with substrate ENLYFVS | area with substrate ENLYFWS | area with substrate ENLYFYS | area with substrate ENLYFDS | area with substrate ENLYFRS | area with substrate ENLYFNS | area with substrate ENLYFFS | area with substrate ENLYFHS | area with substrate ENLYFSS
MGESLFKGPRDYNPISSSICHLTNESDGHTTSLYGIGFGPFIITNKHLFRRNNGTLVVQSLHGVFKVKDTTTLQQHLVDGRDMIIIRMPKDFPPFPQKLKFREPQREERICLVTTNFWTKSMSSMVSDTSCTFPSGDGIFWKHWIQTKDGQCGSPLVSTRDGFIVGIHSASNFTNTNNYFTSVPKNFMELLTNQEAQQWVSGWRLNADSVLWGGHKVFMVKPEEPFQPVKEATQL [Q118W] | 0.0535 | 0.0549 | 0.0446 | – | – | – | – | – | –
MGESLFKGPRDYNPISSSICHLTNESDGHTTSLYGIGFGPFIITNKHLFRRNNGTLVVQSLHGVFKVKDTTTLQQHLVDGRDMIIIRMPKDFPPFPQKLKFREPQREERICLVTTNFQTKSMSSMVSDTSKTFPSGDGIFWKHWIQTKDGQCGSPLVSTRDGFIVGIHSASNFTNTNNYFTSVPKNFMELLTNQEAQQWVSGWRLNADSVLWGGHKVFMVKPEEPFQPVKEATQL [C131K] | – | 0.0693 | – | 0.0543 | 0.0541 | – | – | – | –
MGESLFKGPRDYNPISSSICHLTNESDGHTTSLYGIGFGPFIITNKHLFRRNNGTLVVQSLHGVFKVKDTTTLQQHLVDGRDMIIIRMPKDFPPFPQKLKFREPQREERICLVTTNFQTKSMSSMVSDTSCTFPSGDGIFWKHWIQVKDGQCGSPLVSTRDGFIVGIHSASNFTNTNNYFTSVPKNFMELLTNQEAQQWVSGWRLNADSVLWGGHKVFMVKPEEPFQPVKEATQL [T147V] | 0.0639 | – | – | 0.0491 | 0.0559 | 0.0726 | – | – | –
MGESLFKGPRDYNPISSSICHLTNESDGHTTSLYGIGFGPFIITNKHLFRRNNGTLVVQSLHGVFKVKDTTTLQQHLVDGRDMIIIRMPKDFPPFPQKLKFREPQREERICLVTTNFQTKSMSGMVSDTSCTFPSGDGIFWKHWIQTKDGQCGSPLVSTRDGFIVGIHSASNFTNTNNYFTSVPKNFMELLTNQEAQQWVSGWRLNADSVLWGGHKVFMVKPEEPFQPVKEATQL [S124G] | – | – | – | 0.0656 | 0.0454 | 0.0464 | 0.0696 | – | –
MGESLFKGPRDYNPISSSICHLTNESDGHTTSLYGIGFGPFIITNKHLFRRNNGTLVVQSLHGVFKVKDTTTLQQHLVDGRDMIIIRMPKDFPPFPQKLKFREPQREERICLVTTNFQTKSMSCMVSDTSCTFPSGDGIFWKHWIQTKDGQCGSPLVSTRDGFIVGIHSASNFTNTNNYFTSVPKNFMELLTNQEAQQWVSGWRLNADSVLWGGHKVFMVKPEEPFQPVKEATQL [S124C] | 0.035 | – | 0.0598 | – | 0.0595 | 0.0645 | – | 0.0568 | 0.058
MGESLFKGPRDYNPISSSICHLTNESDGHTTSLYGIGFGPFIITNKHLFRRNNGTLVVQSLHGVFKVKDTTTLQQHLVDGRDMIIIRMPKDFPPFPQKLKFREPQREERICLVTTNFQTKSMSYMVSDTSCTFPSGDGIFWKHWIQTKDGQCGSPLVSTRDGFIVGIHSASNFTNTNNYFTSVPKNFMELLTNQEAQQWVSGWRLNADSVLWGGHKVFMVKPEEPFQPVKEATQL [S124Y] | – | – | 0.0729 | 0.0602 | 0.0394 | – | 0.0416 | – | 0.0614
MGESLFKGPRDYNPISSSICHLTNESDGHTTSLYGIGFGPFIITNKHLFRRNNGTLVVQSLHGVFKVKDTTTLQQHLVDGRDMIIIRMPKDFPPFPQKLKFREPQREERICLVTTNFQTKSMSSMVSTTSCTFPSGDGIFWKHWIQTKDGQCGSPLVSTRDGFIVGIHSASNFTNTNNYFTSVPKNFMELLTNQEAQQWVSGWRLNADSVLWGGHKVFMVKPEEPFQPVKEATQL [D128T] | – | – | 0.058 | 0.0681 | – | – | 0.0784 | 0.0679 | –
MGESLFKGPRDYNPISSSICHLTNESDGHTTSLYGIGFGPFIITNKHLFRRNNGTLVVQSLHGVFKVKDTTTLQQHLVDGRDMIIIRMPKDFPPFPQKLKFREPQREERICLVTTNFQTKSMSSMVSDTSCTFPSGDLIFWKHWIQTKDGQCGSPLVSTRDGFIVGIHSASNFTNTNNYFTSVPKNFMELLTNQEAQQWVSGWRLNADSVLWGGHKVFMVKPEEPFQPVKEATQL [G138L] | 0.0387 | – | – | – | – | 0.0614 | 0.0867 | – | 0.0545
MGESLFKGPRDYNPISSSICHLTNESDGHTTSLYGIGFGPFIITNKHLFRRNNGTLVVQSLHGVFKVKDTTTLQQHLVDGRDMIIIRMPKDFPPFPQKLKFREPQREERICLVTTNFQTKSMSSMVSDTSCTFPSGDYIFWKHWIQTKDGQCGSPLVSTRDGFIVGIHSASNFTNTNNYFTSVPKNFMELLTNQEAQQWVSGWRLNADSVLWGGHKVFMVKPEEPFQPVKEATQL [G138Y] | – | – | – | – | – | 0.0632 | – | – | –
MGESLFKGPRDYNPISSSICHLTNESDGHTTSLYGIGFGPFIITNKHLFRRNNGTLVVQSLHGVFKVKDTTTLQQHLVDGRDMIIIRMPKDFPPFPQKLKFREPQREERICLVTTNFQTKSMSSMVSDTSCTFPSGDGIFFKHWIQTKDGQCGSPLVSTRDGFIVGIHSASNFTNTNNYFTSVPKNFMELLTNQEAQQWVSGWRLNADSVLWGGHKVFMVKPEEPFQPVKEATQL [W141F] | – | 0.0568 | 0.055 | – | 0.0509 | 0.0586 | 0.0663 | 0.0585 | 0.0672
